The full ranking holds about 110,000 compounds; the median of “z-score” is about -0.1, and the highest 2% start at about 2. The list shows a part of the results. The source made the active and inactive calls.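 How the source made its calls: active means z-score in the third read window above 3 or below -3; inactive means the rest.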

The assay deals with Metabotropic glutamate receptor 8 (Rattus norvegicus) (UniProt P70579). Nature of the assay: mGluR8 Gi/Go-coupled signaling modulation – cell-based, rat, thallium flux, HTS, primary screen (AID 488969). As to conditions: HEK293 rat mGluR8, GIRK (G protein-gated inwardly rectifying potassium channel) thallium flux, FluoZin2; at 10 µM; stronger effect = higher value; submaximal glutamate (EC20) added with thallium.
Chain of UniProt P70579 (P70579 whole entry, looked up): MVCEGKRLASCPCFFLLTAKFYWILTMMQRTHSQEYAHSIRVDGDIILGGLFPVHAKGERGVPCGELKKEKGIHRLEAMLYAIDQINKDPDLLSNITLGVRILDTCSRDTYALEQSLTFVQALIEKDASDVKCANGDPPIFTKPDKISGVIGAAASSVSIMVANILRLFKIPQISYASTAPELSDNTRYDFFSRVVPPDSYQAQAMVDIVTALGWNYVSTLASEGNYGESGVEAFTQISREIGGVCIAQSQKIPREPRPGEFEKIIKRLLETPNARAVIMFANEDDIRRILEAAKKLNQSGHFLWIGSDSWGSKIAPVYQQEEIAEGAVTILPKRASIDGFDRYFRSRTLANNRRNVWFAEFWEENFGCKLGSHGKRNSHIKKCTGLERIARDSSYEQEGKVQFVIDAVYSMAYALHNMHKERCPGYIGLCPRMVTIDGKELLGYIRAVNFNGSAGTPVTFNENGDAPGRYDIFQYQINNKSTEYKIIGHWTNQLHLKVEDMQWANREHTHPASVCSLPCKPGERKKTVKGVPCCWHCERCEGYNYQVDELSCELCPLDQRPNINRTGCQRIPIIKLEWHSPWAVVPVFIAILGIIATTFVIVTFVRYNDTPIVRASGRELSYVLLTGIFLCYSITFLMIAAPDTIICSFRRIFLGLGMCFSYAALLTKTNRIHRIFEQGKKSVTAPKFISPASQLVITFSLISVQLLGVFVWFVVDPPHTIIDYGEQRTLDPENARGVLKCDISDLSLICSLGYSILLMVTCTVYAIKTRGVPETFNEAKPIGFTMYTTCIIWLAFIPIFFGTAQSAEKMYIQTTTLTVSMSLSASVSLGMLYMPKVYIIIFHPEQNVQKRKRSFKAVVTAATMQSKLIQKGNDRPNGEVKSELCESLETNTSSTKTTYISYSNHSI
Regarding `O=C1C(=O)c2c(C(=O)c3ccccc3)coc2-c2ccccc21`, the z-score is 0.676.

As for `COC(=O)Nc1ccccc1C(=O)N1CCN(c2ccc(C)cc2)CC1`, the z-score turned out to be 0.379. The same measure for `CCC(Sc1ncnc2c1c(-c1ccccc1)cn2-c1ccc(OC)cc1)C(=O)OC` (stereo unspecified): -0.341. For `COc1cc(/C=C/c2cc(OC(C)=O)c3ccccc3n2)c(OC(C)=O)c([N+](=O)[O-])c1` the value was -0.233; for `Cc1ccccc1Oc1ccc(-c2nc(N)nc(N)n2)cc1`, -0.471; for `O=C(CSC1=NCCS1)NCc1ccco1`, -0.376. In turn, `CCCn1c2c(c(=N)c3c1CCC3)CCCC2` came in with a z-score of 0.0153. The same measure for `CC(C)c1ccc(NS(=O)(=O)c2ccc(Cl)nc2)cc1`: -0.135; for `CC(=O)N/C(=C\c1ccccc1Cl)C(=O)O`: -0.0785. `COc1ccc(-n2c(C)n[nH]c2=O)cc1OC` came in with a z-score of 0.356. For `COc1ccc2c(c1OC)C(=O)OC2Nn1cncn1` (stereo unspecified) the value was 0.0161; for `CCCC(C(=O)n1nc(C)cc1C)C(NS(=O)(=O)c1ccc(C)cc1)c1ccccc1` (stereo unspecified), -0.165.

`Cn1c(CNc2ccccc2)nc2ccccc21` registered a z-score of -0.169. `CCOP(=O)(c1ccccc1)c1nc(-c2ccccc2C)oc1N1CCCCC1` (stereo unspecified) had a z-score of -1.7.

`COc1ccccc1-c1c(C(F)(F)F)oc2cc(OCC(=O)Nc3cc(C)ccc3C)ccc2c1=O` showed a z-score of 0.891. As for `O=S(=O)(Nc1nc2c(s1)CCCC2)c1ccc2ccccc2c1`, the z-score is -0.38. `Cc1ccccc1C(=O)NCCCCc1ccccc1` showed a z-score of -0.0963. For `COc1ccc(CCNc2nc(-c3sc(C)nc3C)cs2)cc1OC` the value was -1.11; for `Cc1ccc(-c2c(C)n([O-])c3c([n+]2=O)CCCCC3)o1`, -0.48. For `Cc1cc(C)cc(NCc2cc3c(cc2[N+](=O)[O-])OCO3)c1` the value was 0.373; for `Cc1cccc2cc(CN(Cc3ccco3)S(=O)(=O)c3ccc4c(c3)OCCO4)c(=O)[nH]c12`, -0.806; for `CCOCCc1nnc(NC(=O)Cc2ccc(Br)cc2)s1`, 0.416.

Compound `COC(=O)c1cccc(NC(=O)Cc2ccccc2[N+](=O)[O-])c1C` registered a z-score of -0.17. The same measure for `CCC(=NCc1ccccc1)C1=C(O)C(C(=O)OC)C(C)(C)CC1=O` (stereo unspecified): 0.197. Regarding `CCC(=O)Nc1ccc2c(c1)ncn2-c1ccc(OC)cc1`, the z-score came to 2.82. The same measure for `CC(N=Cc1nc(-c2ccccc2)oc1O)c1ccccc1` (stereo unspecified): -0.238; for `CCN1CC2=C(OC(N)=C(C#N)C2c2cccs2)/C(=C\c2cccs2)C1` (stereo unspecified): -0.385. As for `COc1ccc(-c2n[nH]c(=S)o2)c(OC)c1`, the z-score is 0.0321. `Brc1ccccc1-c1nnc(COc2cccc3cccnc23)o1`: the z-score was -1.97.

As to `Cc1noc(C)c1S(=O)(=O)NCCN1CCN(c2ccccc2)CC1`, the z-score was -0.863.

Consider `Cc1csc(N(C(=O)CCNC(=O)c2ccc([N+](=O)[O-])cc2)c2ccccc2)n1`, for which the z-score is 0.168. For `NC(=O)C1CCN(C(=O)C23CC4CC(CC(C4)C2)C3)CC1` the value was -0.0229; for `Cc1c(NC(=O)c2ccccc2)c(=O)n(-c2ccccc2)n1C`, -0.317; for `CN=C1SC(C(=O)O)CC(=O)N1C` (stereo unspecified), -0.651. For `CCOC(=O)C1=C(C)N=c2s/c(=C3/C(=O)Nc4ccccc43)c(=O)n2C1c1ccc(C)cc1` (stereo unspecified) the value was -0.338. Take `Cc1noc(C)c1COC(=O)[C@H](C)NS(=O)(=O)c1ccc(Cl)c(Cl)c1`: the z-score was -0.0784. For `CC1CC(C)CN(CCCNC(=O)CC2Oc3ccccc3NC2=O)C1` (stereo unspecified) the value was -0.048; for `COc1ccc(-c2cn3c(C)c(C(=O)Nc4cc(NC(C)=O)ccc4OC)sc3n2)cc1`, 0.107; for `COc1ccccc1-c1nc(S(=O)(=O)c2ccc(Cl)cc2)c(N(C)C)o1`, 0.0518. For `Cn1c(=O)c2c(nc(NCc3ccco3)n2Cc2ccc(Cl)cc2Cl)n(C)c1=O` the value was -0.172; for `COc1ccc(-n2cnc3cc(NS(=O)(=O)c4ccc(C)cc4)ccc32)cc1`, -0.714.

For the compound `COc1ccc(CC(=O)Nc2cccc(S(=O)(=O)N3CCCCCC3)c2)cc1OC`, the z-score came to 0.183.

For `Cc1ccc2nc(/C(C#N)=C\c3ccc(N4CCCCC4)c([N+](=O)[O-])c3)[nH]c2c1`, the z-score is 1.72. For `Cc1ccsc1C1Nc2ccc3ncccc3c2C2=C1C(=O)CCC2` (stereo unspecified) the value was -2.83; for `CCn1ncc(/C=N\NC(=O)c2csc3ccccc23)c1C`, -0.141; for `CCN(CC)C(=O)C1CCCN(C(=O)Nc2ccc3nsnc3c2)C1` (stereo unspecified), -0.135. `NC(=O)COc1ccc2c3c(c(=O)oc2c1)CCCCC3` displayed a z-score of -0.458. The same measure for `O=S(=O)(NCc1ccc(Cl)cc1)c1cnc[nH]1`: 0.261; for `COc1ccc(-n2c(SCC(=O)NNC(=O)c3ccc(C)cc3)nnc2-c2ccncc2)cc1`: 0.401; for `Cc1cccnc1NC(=O)Nc1cccc(C(F)(F)F)c1`: 1.5. As for `CN(C(=O)CSc1nnc(Cc2cccc3ccccc23)n1N)C1CCS(=O)(=O)C1` (stereo unspecified), the z-score stood at 0.0476. For `CC1C/C(=N/N2C(=O)CSC2=S)CC(C)(C)C1` (stereo unspecified), the z-score is -0.42. For `Cn1ncc2c(Nc3cccc4ccccc34)ncnc21` the value was 0.18; for `CCc1nc2oc3cc(OC)ccc3c(=O)c2c(=O)n1Cc1ccco1`, -0.537; for `CC(CN(C)Cc1ccccc1)OC(=O)C1COc2ccccc2O1` (stereo unspecified), 0.0724. `CCS(=O)(=O)N1Cc2ccccc2CC1C(=O)Nc1nc2ccc(F)cc2s1` (stereo unspecified): the z-score amounted to 0.444. The same measure for `CCCn1nnnc1SCC(=O)Nc1nnc(CC)s1`: -0.0261; for `COc1cccc(S(=O)(=O)Nc2cccc(C(=O)N3CCOCC3)c2)c1`: -0.0885; for `O=C(CNC(=O)c1cccc(Br)c1)N/N=C/c1cn[nH]c1-c1ccccc1`: -0.145. In turn, `COc1ccc(OC)c(S(=O)(=O)n2cnc3cc(C)c(C)cc32)c1` yielded a z-score of 0.123. In the case of `CCc1[nH]nc2c1C(c1ccncc1)C(C#N)=C(N)O2` (stereo unspecified), the z-score was determined as 0.499. For `CCOc1c(Br)cc(CNCc2cccs2)cc1OC`, the z-score was -0.405. The compound `CCOC(=O)c1cc(CC)sc1NC(=O)c1ccc2c(c1)OCCO2` registered a z-score of -0.146. `CC1(C)CC(NC(=O)CC2CCCCC2)CC(C)(C)N1` yielded a z-score of 0.12. In the case of `CN(C)C(=O)N1CCN(C(=O)c2ccco2)CC1`, the z-score was -1.95.

Turning to `COc1ccc(-c2nc(-c3ccc4c(c3)OCO4)[nH]c2-c2ccc(OC)cc2)cc1`, the z-score is -0.776. Take `CC(C)Cn1c(=O)c(C2=NS(=O)(=O)c3ccccc3N2)c(O)c2ccccc21`: the z-score was active: 5.83. The same measure for `COc1ccc(Cn2c(-c3ccc(Cl)cc3)c[n+]3ccccc23)cc1`: 0.00141.

The compound `O=C(COc1ccccc1)Nc1ccc2c(c1)nc1n2CCOC1` displayed a z-score of 0.00921.

`COc1ccc(N(CC(=O)N2CC=C(c3ccccc3)CC2)S(=O)(=O)c2c(C)noc2C)cc1`: the z-score was -0.127.

On to `O=C(CN1C(=O)COc2ccccc21)Nc1ccc(F)cc1`, for which the z-score was -0.0719.

The values above are taken from PubChem BioAssay AID488969 (Vanderbilt High Throughput Screening Facility, 2010).
